Data from the RNAGym collection of RNA variant scans (doi:10.1093/nar/gkz1192).
The source gives no read counts; variants with many changes may rest on few reads.

B1: CPEB3 Ribozyme (parent)
chain: UAACAGGGGGCCACAGCAGAAGCGUUCACGUCGCAGCCCCUGUCAGAUUCUGGUGAAUCUGCGAAUUCUGCUGUAUAUCUC

Variants of: B1
Assay: self-cleavage, relative activity (ratio to wild type); higher = more cleavage; in vitro, sequencing
Summary of the method: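 For each CPEB3 ribozyme variant, relative activity is its cleaved/total read fraction divided by the unmutated ribozyme's. Barcoded error-prone PCR libraries were transcribed by T7 RNA polymerase (5 hours, 37°C) and held in DNase I for 15 min before an EDTA stop, with cleavage occurring throughout. Template-switching reverse transcription and Illumina sequencing were used to read the RNAs. A 5-read minimum applied, and results are the mean of three batches.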

| Variant | self-cleavage |
| --- | --- |
| UAACAGGGGGCCACAGCAGAAGCGUUCACGUUGCAGACCCUGUCAGAUUCCGGUGAAUCUGGGAAUUCUGCUGUAUAUCUC | 0.27 |
| UAACAGGGGGCCACAGCAGAAGCGUUCACGUUUCAGCCCCUGUCAGACUCUGGUGAAUCUGCGAAUUCUGCUGUAUAUCUC | 0.41 |
| UAACAGGGGGCCACAGCAGAAGCGUUCACGUUGCAGCCCCUAUCAGAUUCUGGCGAAUCAGCGAAUUCCGCUGUAUAUCUC | 0.18 |
| UAACAGGGGGCCACAGCAGAAGCGUUCACGUUGCAGCCCCUGUCAGAUUCUCGUGAAUCAGCGAAUUCUGCUGUAUAUCUC | 0.14 |
| UAACAGGGGGCCACAGCAGAAGCGUUCACGUUGCAGCCCCAGUCAGACUCCGGUGAAUCUGCGAAUUCUGCUGUAUAUCUC | 0.18 |
| UAACAGGGGGCCACAGCAGAAGCGUUCACGUUGCAGCCCCAGUCAGAUUCUGGUGAAUCCGCGAAUUCUGCUGUAUAUCUC | 0.15 |
| UAACAGGGGGCCACAGCAGAAGCGUUCACGUUGCAGCCCCCGUCAGAUUCUGGUGGAUCUGCGAAUUCUGCUGUAUAUCUC | 0.47 |
| UAACAGGGGGCCACAGCAGAAGCGUUCACGUUGCAGCCCCCGUCAGAUUCUGGUGAAUCUGGGAAUUCUGCUGUAUAUCUC | 0.15 |
| UAACAGGGGGCCACAGCAGAAGCGUUCACGUUGCAGCCCCCGUCAGAUUCUGGUGAAUCUGCGAACUCUGCUGUAUACCUC | 0.12 |
| UAACAGGGGGCCACAGCAGAAGCGUUCACGUUGCAGCCCCUGACAGAUUCCGGUGUAUCUGCGAAUUCUGCUGUAUAUCUC | 0.1 |
| UAACAGGGGGCCACAGCAGAAGCGUUCACGUUGCAGCCCCUGCCUGAAUCUGGUGAAUCUGCGAAUUCUGCUGUAUAUCCC | 0.08 |
| UAACAGGGGGCCACAGCAGAAGCGUUCACGUUGCAGCCCCUGCCUGAUUCCGGUGAAUCUGCGAAUUCCGCUGUAUACCUC | 0.09 |
| UAACAGGGGGCCACAGCAGAAGCGUUCACGUUGCAGCCCCUGCCAGAUUCUGGUGAAUCUGCGUAUUCUGCUGUAUAUCUC | 0.19 |
| UAACAGGGGGCCACAGCAGAAGCGUUCACGUUGCAGCCCCUGCCAGAUCCUGGUGGAUCUGCGAAUUCUGCUGUAUAUCUC | 0.53 |
| UAACAGGGGGCCACAGCAGAAGCGUUCACGUUGCAGCCCCUGUCAGAAUCUGGUGAACCUGCGAAUUCUGCUGUAUAUCUC | 0.14 |
| UAACAGGGGGCCACAGCAGAAGCGUUCACGUUGCAGCCCCUGUCAGACCCUGGUGAAUCUGCGAAUUCUGCUGUAUAUCUC | 0.13 |
| UAACAGGGGGCCACAGCAGAAGCGUUCACGUUGCAGCCCCUGUCAGACUCUGGAGAAUCUGCGAAUUCUGCUGUAUAUCUC | 0.14 |
| UAACAGGGGGCCACAGCAGAAGCGUUCACGUUGCAGCCCCUGUCAGAUACUGGUGAAUCUGCGAAUCCUGCUGUAUAUCUC | 0.11 |
| UAACAGGGGGCCACAGCAGAAGCGUUCACGUUGCAGCCCCUGUCAGAUCCAGGCGAAUCUGCGAAUUCUGCUGUAUAUCUC | 0.13 |
| UAACAGGGGGCCACAGCAGAAGCGUUCACGUUGCAGCCCCUGUCAGAUCCAGGUGAAUCUGCGAAUUCUGCGGUAUAUCUC | 0.09 |
| UAACAGGGGGCCACAGCAGAAGCGUUCACGUUGCAGCCCCUGUCAGAUUCCGGUGAGUCUGCGAAUCCUGCUGUAUAUCUC | 0.14 |
| UAACAGGGGGCCACAGCAGAAGCGUUCACGUUGCAGCCCCUGUCAGAUUCCGGAGAAUCCGCGAAUUCUGCCGUAUAUCCC | 0.18 |
| UAACAGGGGGCCACAGCAGAAGCGUUCACGUUGCAGCCCCUGUCAGAUUCUGGCGGAUCUGCGAAUUCUGCUGUGUAUCUC | 0.12 |

| Variant | self-cleavage |
| --- | --- |
| UAACAGGGGGCCACAGCAGAAGCGUUCACGUUGCAGCCCCUGUCAGAUUCUGGCGAAUCUGCGAGUUCUGCUGUAUAUCUC | 0.16 |
| UAACAGGGGGCCACAGCAGAAGCGUUCACGUUGCAGCCCCUGUCAGAUUCUGGCGAAGCUGCGAAUUCUGCUGUAUAUCUC | 0.12 |
| UAACAGGGGGCCACAGCAGAAGCGUUCACGUUGCAGCCCCUGUCAGAUUCUGGCGAAUCUGCGAAUUCUGCUGUAUACCUC | 0.12 |
| UAACAGGGGGCCACAGCAGAAGCGUUCACGUUGCAGCCCCUGUCAGAUUCUGGUGAAACCGCGAAUUCUGCUGUAUAUGUC | 0.06 |
| UAACAGGGGGCCACAGCAGAAGCGUUCACGUUGCAGCCCCUGUCAGAUUCUGGUGAAUCAGCGAAUCCUGCUGUAUAUCUC | 0.12 |
| UAACAGGGGGCCACAGCAGAAGCGUUCACGUUGCAGCCCCUGUCAGAUUCUGGUGAAUCGGCGAAUUCUGCUGCUUACCUC | 0.08 |
| UAACAGGGGGCCACAGCAGAAGCGUUCACGUUGCAGCCCCUGUCAGAUUCUGGUGAAUCUGCGAAUCCCGCUGUAUAUCUC | 0.05 |
| UAACAGGGGGCCACAGCAGAAGCGUUCACGUUGCAGCCCCUGUCAGAUUCUGGUGAAUCUGCGAAUUCUGCUGUAUACCCC | 0.31 |
| UAACAGGGGGCCACAGCAGAAGCGUUCACGUCACGGCCCCUGUCAGUUUCUGGUGAAUCUGCGAAUUCUGCUGUAUAUCUC | 0.18 |
| UAACAGGGGGCCACAGCAGAAGCGUUCACGUCACGGCCCCUGUCAGAUUCUGGUGAGUCUGCGAAUUCUGCUGUAUAUCCC | 0.37 |
| UAACAGGGGGCCACAGCAGAAGCGUUCACGUCACGGCCCCUGCCAGAUUCUGGUGAAUCUGCGAAUUCUGCUGUAUGUCUC | 0.15 |
| UAACAGGGGGCCACAGCAGAAGCGUUCACGUCACGGCCCCUGUCAGAUUCAGGUGAAUCUGCGAAUUCUGCCGUAUAUCUC | 0.17 |
| UAACAGGGGGCCACAGCAGAAGCGUUCACGUCACGGCCCCUGUCAGAUUCGGGUGUAUCUGCGAAUUCUGCUGUAUAUCUC | 0.15 |
| UAACAGGGGGCCACAGCAGAAGCGUUCACGUCACGGCCCCUGUCAGAUUCUGGUGAAUCAGCGAAUUCUGGUGUGUAUCUC | 0.08 |
| UAACAGGGGGCCACAGCAGAAGCGUUCACGUCACGGCCCCUGUCAGAUUCUGGUGAAUCCGCGAAUUCUGCUGUAUAUCUC | 0.13 |
| UAACAGGGGGCCACAGCAGAAGCGUUCACGUCACGGCCCCUGUCAGAUUCUGGUGAAUCUGCGAAUUCUGCCGUAUAUCUC | 0.57 |
| UAACAGGGGGCCACAGCAGAAGCGUUCACGUCACUGCCCCUGUCUGAUUCUGGUGAAUCUGCGCAUUCUGCUGUAUAUCAC | 0.06 |
| UAACAGGGGGCCACAGCAGAAGCGUUCACGUCACUGCCCCUGUCAGAUUCUGGUGAAUCUGCGAACUCUGCUGUAUAUCUC | 0.25 |
| UAACAGGGGGCCACAGCAGAAGCGUUCACGUCACUGCCCCUGUCAGAUUCUGGUGAAUCUGCGAAUUCAGCUGUAUAUCUC | 0.14 |
| UAACAGGGGGCCACAGCAGAAGCGUUCACGUCACAGCCCCUGUCGGAUUCUGGUGAGUCCGCGAACUCUGCUGUAUAUCCC | 0.25 |
| UAACAGGGGGCCACAGCAGAAGCGUUCACGUCACAGCCCCUGUCGGAUUAUGGUGAAUCUGCGAAUUCUGCUGUACAUCUC | 0.07 |
| UAACAGGGGGCCACAGCAGAAGCGUUCACGUCACAGCCCCUGUCGGAUCCUGGUGAAUCUGCGAAUUCUGCUGUAUAUCUC | 0.22 |
| UAACAGGGGGCCACAGCAGAAGCGUUCACGUCACAGCCCCUGUCGGAUUCUGGUGAAACUGCGAAUUCUGCUGUAUAUCUC | 0.07 |

| Variant | self-cleavage |
| --- | --- |
| UAACAGGGGGCCACAGCAGAAGCGUUCACGUCACAGCCCCUGUCUGAUUCAGGUGAAUCUGCGAAUCCUGCUGUAUAUCUC | 0.05 |
| UAACAGGGGGCCACAGCAGAAGCGUUCACGUCACAGCCCCUGUCUGAUUCUGGUGAAUCUGCGAAGUCUGCUGUAUAUCUC | 0.14 |
| UAACAGGGGGCCACAGCAGAAGCGUUCACGUCACAGCCCCUGUCAGGUUCUGGUGAAUCUGCGGAUUCUGCUGUAUAUCUC | 0.16 |
| UAACAGGGGGCCACAGCAGAAGCGUUCACGUCACAGCCCCUGUCAGGUUCUGGUGAAUCUGCGGAUCCUGCUGUAUAUCUC | 0.13 |
| UAACAGGGGGCCACAGCAGAAGCGUUCACGUCACAGCCCCUGUCAGGUUAUGGUGAAUCUGCGAAUUCUGCUGUAUAUCUC | 0.18 |
| UAACAGGGGGCCACAGCAGAAGCGUUCACGUCACAGCCCCUGUCAGGUUCUGGUGAAUCUGCGAAUUCUGCCGUAUAUCUC | 0.15 |
| UAACAGGGGGCCACAGCAGAAGCGUUCACGUCACAGCCCCUGUCAGAUUCUGGUGGGUCCGCGAAUUCUGCUGUAUAUCUC | 0.37 |
| UAACAGGGGGCCACAGCAGAAGCGUUCACGUCACAGCCCCUGUCAGAUUCUGGUGGAUCUGCGGAUUCUGCCGUAUAUCUC | 0.15 |
| UAACAGGGGGCCACAGCAGAAGCGUUCACGUCACAGCCCCUGUCAGAUUCUGGUGGAUCUGCGAAUUCUGCAGUAUAUCUC | 0.12 |
| UAACAGGGGGCCACAGCAGAAGCGUUCACGUCACAGCCCCUGUCAGAUUCUGGUGUGUCUGCGAAUUCUGCUGUAUAUCUC | 0.18 |
| UAACAGGGGGCCACAGCAGAAGCGUUCACGUCACAGCCCCUGUCAGAUUCUGGUGAGUCUGCGUAUUCUGCUGUAUAUCUC | 0.09 |
| UAACAGGGGGCCACAGCAGAAGCGUUCACGUCACAGCCCCUGUCAGAUUCUGGUGAAUCUGCGGAUUCUGCUGUAUACCUC | 0.12 |
| UAACAGGGGGCCACAGCAGAAGCGUUCACGUCAUAGCCCCUGACAGAUCCUGGUGAAUCUGCGAAUUCUGCCGUAUACCUC | 0.05 |
| UAACAGGGGGCCACAGCAGAAGCGUUCACGUCACAGUCCCUGUCAGAUUCUGGUGAAUCUGCGGACUCUGGUGUAUAUCUC | 0.14 |
| UAACAGGGGGCCACAGCAGAAGCGUUCACGUCACAGCCCCUGUCAGAUUCUGGUGAAUUUGCGAAUUCUGCUGUAUAUCCC | 0.15 |
| UAACAGGGGGCCACAGCAGAAGCGUUCACGUCACAACCCCUGCCAGAUUCAGGUGAAUCUGCGAACUCCGCUGUACAUCUC | 0.12 |
| UAACAGGGGGCCACAGCAGAAGCGUUCACGUCACAUCCCCUGCCAGAUUCUAGUGAAUCUGCGAAUUCAGCUGUAUAUCUC | 0.43 |
| UAACAGGGGGCCACAGCAGAAGCGUUCACGUCACAGCCCCUAUCAGAUUCUGGUGAAUCUGCGAAUUCUGCUGGAUAUCUC | 0.06 |
| UAACAGGGGGCCACAGCAGAAGCGUUCACGUCACAGCCCCAGUCAGGUUCUGGUGAAUCUGCGAAUUCUGCUGUAUAUCUC | 0.64 |
| UAACAGGGGGCCACAGCAGAAGCGUUCACGUCACAGCCCCAGUCAGGUUCUGGUGAAUCCGCGAACUCUGCUGUAUAUCUC | 0.09 |
| UAACAGGGGGCCACAGCAGAAGCGUUCACGUCACAGCCCCAGUCAGAUUCUGUUGAAUCUGCAGAUUCUGCUGUAUAUCUC | 0.11 |
| UAACAGGGGGCCACAGCAGAAGCGUUCACGUCACAGCCCCAGUCAGACUCUGGUGAAUCUGCGAAUUCUGCUGUAUAUCUC | 0.19 |
